Results reported in PubChem BioAssay AID1346428 (National Center for Advancing Translational Sciences (NCATS), 2018).
Screen size: about 48,000 compounds; about 1,200 (2.5%) were called active. Another 2% or so got no clear call; they are omitted.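 How the source made its calls: active means activation of at least 60% and not above a set upper limit (about 1 call in 100 departs from these limits); inconclusive means activation of 40% to 60%, or above that upper limit; inactive means activation under 40%.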 The list shows a part of the results.

What follows are compounds tested against Probable G-protein coupled receptor 32 (Homo sapiens) (UniProt O75388) (assay: qHTS for Agonists of Human Resolvin D1 Receptor DRV1). Conditions: CHO-K1 GPR32 beta-arrestin PathHunter luminescence, 90 min; at 76.9 µM; stronger effect = higher value; zero percent set by DMSO-only wells.
Procedure, shortened: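 Engineered CHO-K1 line co-expressing GPR32-ProLink and EA-beta-arrestin. Compound treatment lasted 90 min at 37 °C. Luminescence was recorded after 1 h with substrate at ambient temperature, relative to DMSO basal wells.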
Further: 0% is about no effect.

Sequence of UniProt O75388 (O75388 whole entry, looked up): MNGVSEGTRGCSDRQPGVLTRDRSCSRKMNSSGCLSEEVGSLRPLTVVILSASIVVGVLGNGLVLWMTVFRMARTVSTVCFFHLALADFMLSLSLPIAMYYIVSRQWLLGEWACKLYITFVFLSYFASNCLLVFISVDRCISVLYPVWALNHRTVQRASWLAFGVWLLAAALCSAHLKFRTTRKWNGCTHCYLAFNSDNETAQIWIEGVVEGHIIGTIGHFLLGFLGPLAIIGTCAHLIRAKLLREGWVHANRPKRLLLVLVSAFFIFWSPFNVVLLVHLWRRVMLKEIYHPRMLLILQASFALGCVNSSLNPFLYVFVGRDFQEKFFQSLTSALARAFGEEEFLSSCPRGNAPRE

| Compound | activation |
| --- | --- |
| CCOC(=O)C1CCCN(C(=O)c2nn(-c3ccc(OC)cc3)c(=O)c3c2c2ccccc2n3C)C1 (configuration not stated) | inactive: -21.1% |
| CCc1ccc(-n2nc(C)c3c(C)cc(=O)n(CC(=O)N4CCCc5ccccc54)c32)cc1 | inactive: 4.54% |
| O=c1cc(-c2ccccc2)n2c(SCc3ccccc3)nnc2[nH]1 | inactive: 2.15% |
| Cc1cc2c(cc1CC(=O)c1sccc1S(=O)(=O)Nc1onc(C)c1Cl)OCO2 | inactive: 23% |
| Cc1ccc(-n2c(=O)c3c(C)c(C(=O)N(C)C)sc3n(CC(=O)C(C)(C)C)c2=O)cc1C | inactive: -7.54% |
| Cc1c(C(=O)N(Cc2ccccc2F)C2CCS(=O)(=O)C2)oc2ccc(F)cc12 (configuration not stated) | inactive: -8.91% |
| Cn1c(=O)c2c(nc(NCc3ccccc3)n2Cc2ccccc2)n(C)c1=O | inactive: 16.6% |
| Cn1c(=O)c2c(SCC(=O)NCc3ccco3)nc(-c3ccccc3)nc2n(C)c1=O | inactive: -2.08% |
| CCOC(=O)c1cnc2ccc(OC)cc2c1NCCc1ccccc1 | inactive: -5.01% |
| COc1ccc(N2CC(NC(=O)COc3ccccc3)CC2=O)cc1OC (configuration not stated) | inactive: 16.2% |
| Cc1cccc(CNC(=O)Cn2nc(C)n3c(cc4cc(F)ccc43)c2=O)c1 | inactive: -12% |
| CCc1ccc(-n2nc3cc(C)c(NC(=O)c4cccc5ccccc45)cc3n2)cc1 | inactive: 8.31% |
| O=C(O)Cc1ccc(-c2ccccc2)cc1 | inactive: 30% |
| CN(c1ncnc2onc(-c3cccc(Cl)c3)c12)C1CCCCC1 | inactive: 5.93% |
| Cc1ccc(-n2nc(CO)c(C(=O)NCc3ccccn3)n2)cc1C | inactive: -7.92% |
| CC1CCn2c(nc3cc(C(=O)NCCc4ccc(Cl)cc4)ccc32)C1 (configuration not stated) | inactive: -7.24% |
| COc1cccc(CNC(=O)C(=O)Nc2c3c(nn2-c2ccccc2)CSC3)c1 | inactive: -23.4% |
| CCN(C(=O)C1CCN(S(=O)(=O)c2ccc3c(c2)CCCN3C(C)=O)CC1)c1cccc(C)c1 | inactive: -6.8% |
| COc1ccccc1OCC(=O)NCC(c1ccc(Cl)cc1)N1CCCCC1 (configuration not stated) | inactive: -18.9% |
| CC(=O)c1cccc(NC(=O)c2sc(-n3nc(C)c(Cc4ccc5c(c4)OCO5)c3C)nc2C)c1 | inactive: -8.84% |
| CCOc1ccc(-c2cccc(NS(=O)(=O)c3c(C)cc(C)cc3C)c2)nn1 | inactive: -6.31% |

| Compound | activation |
| --- | --- |
| COc1ccccc1CCNC(=O)C(=O)NCC(c1ccc2c(c1)OCO2)N1CCOCC1 (configuration not stated) | inactive: -2.68% |
| Cc1ccc2oc3c(c(=O)c2c1)C(c1ccc(F)cc1)N(Cc1ccc2c(c1)OCO2)C3=O (configuration not stated) | inactive: 7.5% |
| CCOC(=O)c1c(NC(C)=O)c2c3c(sc2n1Cc1nc(-c2cccc(Cl)c2)oc1C)CCCC3 | inactive: -12.1% |
| Cc1c(Cl)cccc1NC(=O)Cn1c(CCC(=O)O)ccc1-c1cccs1 | inactive: -11.1% |
| CC(C)(C)OC(=O)N1CCC(c2c(C(=O)N3CCCCC3)cnn2-c2ccc(Cl)cc2)CC1 | inactive: -10% |
| CCN(CC)C(=O)CSc1nc(-c2ccccc2F)nc2c1Cc1c(CO)cnc(C)c1O2 | inactive: -2.51% |
| Cc1c(-c2ccc(Br)cc2)c(=O)oc2ccc(OC(=O)N3CCOCC3)cc12 | inactive: 8.87% |
| COc1ccc(OC)c(-c2nnc3n(Cc4ccc(C)cc4)c(=O)c4ccccc4n23)c1 | inactive: -30.7% |
| CCOc1cc(C(=O)NCCc2csc3nc(-c4ccc(C)cc4)nn23)cc(OCC)c1OCC | inactive: -6.78% |
| COC(=O)c1ccccc1NC(=O)CSc1nc2ccsc2c(=O)n1CCC(C)C | inactive: -11.7% |
| C=Cc1ccc(Cn2c(C)c(CNCc3cccc(Br)c3)c(C(=O)O)c2C)cc1 | inactive: -1.51% |
| COc1ccc(Cc2nc3ccccc3[nH]c2=O)cc1 | inactive: -2.38% |
| Cc1c(Cl)cccc1-c1ccc(C(=O)Nc2ccc(F)cc2)o1 | active: 60.8% |
| Cc1cccc(Cn2c(CNS(=O)(=O)c3ccc4c(c3)CCCC4)nc3cccnc32)c1 | inactive: -23.1% |
| C[C@@H]1C[C@H]2[C@@H]3C[C@H](F)C4=CC(=O)C=C[C@]4(C)[C@@]3(F)[C@@H](O)C[C@]2(C)[C@@]1(O)C(=O)CO | inactive: 49.5% |
| COC(=O)c1ccc(OCC2c3cc(OC)c(OC)cc3CCN2C(=O)COc2ccc(Cl)cc2)cc1 (configuration not stated) | inactive: -0.986% |
| O=C(c1ccccc1Cl)N1c2ncnn2C2(CCCCC2)[C@@H]2CCCC[C@@H]21 | inactive: -10.7% |
| CCOC(=O)c1c(S(=O)(=O)N2CCCC(C(=O)NCc3ccc(Cl)cc3)C2)c(C)n(C)c1C (configuration not stated) | inactive: -2.25% |
| COc1ccc(F)cc1S(=O)(=O)NCCc1csc2nc(-c3cccc(C)c3)nn12 | inactive: -16.9% |
| CCOc1cc(-c2nnc(SCC(=O)Nc3ccc(F)c(F)c3)nc2-c2ccc(OC)c(OCC)c2)ccc1OC | inactive: 9.43% |
| COc1ccc(S(=O)(=O)N(CCc2ccccc2)CC(=O)Nc2ccc(C)c(C)c2)cc1OC | inactive: -4.94% |

| Compound | activation |
| --- | --- |
| CCC(=O)Nc1nnc(SCc2cc(=O)c3cc(C)ccc3[nH]2)s1 | inactive: 32.3% |
| O=C(Nc1cccc(-c2nc3ccccc3o2)c1)c1ccc(-c2ccc(Br)cc2)o1 | inactive: 4.21% |
| O=S(=O)(Nc1ccc(-c2ccc(N3CCCC3)nn2)cc1)c1ccc(Cl)cc1 | inactive: 13.1% |
| Cc1c(C(=O)OC2CCCC2)[nH]c2c1C(=O)CC(c1ccc(Cl)cc1)C2 (configuration not stated) | inactive: -6.19% |
| CCOc1ccc(CNS(=O)(=O)c2c(C(=O)N3CCC(C)CC3)c(C)n(C)c2C)cc1OC | inactive: -21.4% |
| CC(=O)N1CCc2c(sc3c2c(=O)n(-c2ccccc2)c(=O)n3CC(=O)Nc2cccc(C)c2)C1 | inactive: -10.5% |
| CC(C)N(C(=O)CSc1nc2ccc(Cl)cc2[nH]1)c1ccccc1 | inactive: -27.8% |
| COc1ccccc1CNC(=O)CCCc1nnc2n(CC(C)C)c(=O)c3sccc3n12 | inactive: -0.591% |
| COc1ccccc1CNC(=O)CCC1N=C2c3ccccc3N=C(SCc3cccc(Cl)c3)N2C1=O (configuration not stated) | inactive: -11.1% |
| COc1ccc(-c2cc3nc(-c4ccc(C)cc4)cc(C(F)(F)F)n3n2)cc1 | inactive: 0.57% |
| CCOc1ccc(OCC)c(NS(=O)(=O)c2cc(Br)cc3c2N(C(C)=O)C(C)C3)c1 (configuration not stated) | inactive: -12.3% |
| CC(C)CN(CCCNC(=O)Cn1ncc2c3ccccc3n(C)c2c1=O)CC(C)C | inactive: -1.17% |
| COc1ccc(Cl)cc1NC(=O)CCS(=O)(=O)c1nc(-c2cccs2)cc(C(F)(F)F)n1 | inactive: -46.9% |
| CCOC(=O)c1ccc(NC(=O)Nc2c[nH]c(=O)[nH]c2=O)cc1 | inactive: 8.65% |
| Cc1ccc(CNC(=O)c2cc3c(s2)-c2ccccc2SC3)cc1 | inactive: -15.2% |
| CCOC(=O)c1cc(-c2ccccc2)n(CC(=O)NC(C)c2ccccc2)c1C (configuration not stated) | inactive: 43.3% |
| CC(C)COc1ccc(C(=O)Nc2cccc(-c3nc4ccccc4[nH]3)c2)cc1 | inactive: 13.7% |
| Cc1cc(C)cc(NC(=O)CCS(=O)(=O)c2cc3c4c(c2)CCN4C(=O)CC3)c1 | inactive: -16.9% |
| CCc1ccc(OC(C)C(=O)N2CCC(c3nc4ccccc4s3)CC2)cc1 (configuration not stated) | inactive: 29.4% |
| CCn1cc(C(=O)N2CCN(c3cccc(C(F)(F)F)c3)CC2)c2cc(OC)c(OC)cc2c1=O | inactive: 18.1% |
| O=C(NC1(C(F)(F)F)C(=O)Nc2c1c(=O)[nH]c(=O)n2CCc1ccccc1)c1ccc(Cl)cc1Cl (configuration not stated) | inactive: 40% |

| Compound | activation |
| --- | --- |
| COc1ccccc1-c1cc2nc(C)c(CCC(=O)Nc3ccc(Br)c(C)c3)c(C)n2n1 | inactive: -0.566% |
| CCOc1ccccc1NC(=O)C1CCCN(S(=O)(=O)c2c(C)[nH]c(=O)[nH]c2=O)C1 (configuration not stated) | inactive: 0.388% |
| CCOc1ccc(/C=C(\C#N)c2nc3ccccc3c(=O)[nH]2)cc1OC | inactive: -3.5% |
| CCOC(=O)N1CCc2c(sc(NCc3cccc(F)c3)c2C(=O)Nc2ccccc2OCC)C1 | inactive: -14.8% |
| Cc1nc(N2C(=O)c3oc4ccccc4c(=O)c3C2c2cccc(OCCC(C)C)c2)sc1C (configuration not stated) | inactive: -0.0647% |
| Cc1ccc(N2CC(NC(=O)Cc3cccs3)CC2=O)cc1C (configuration not stated) | inactive: 0.381% |
| O=C(CSc1nnc(-c2ccccc2)c(-c2ccccc2)n1)NC1CCCCC1 | inactive: -9.32% |
| CCOc1ccc(-c2nonc2NC(=O)c2oc3ccc(Br)cc3c2C)cc1 | inactive: -3.86% |
| O=C(O)c1cn(-c2ccc(F)cc2)c2cc(N3CCNCC3)c(F)cc2c1=O | inactive: -18% |
| CCc1nc2ccc(C(=O)N3CCN(c4ccccc4)CC3)cc2nc1CC | inactive: -33.1% |
| COc1ccc2c(c1)CCc1c(C(=O)Nc3ccc(F)c(Cl)c3)noc1-2 | inactive: 6.03% |
| COC(=O)c1nnn(CC(=O)NC(=O)Nc2cccc(C)c2C)c1C(=O)OC | inactive: -8.14% |
| COc1ccc(NC(=O)c2cc(S(=O)(=O)N3CCCCC3)cn2C)cc1Cl | inactive: 1.48% |
| O=C(Nc1ccc(S(=O)(=O)N2CCCCC2c2cccnc2)cc1)c1ccc(F)cc1 (configuration not stated) | inactive: 32.2% |
| CN(C)c1ccc(-c2noc(C3CC(=O)N(c4ccc5c(c4)OCCO5)C3)n2)cc1 (configuration not stated) | inactive: -0.164% |
| O=C(Nc1ccc(Cl)cc1)c1cc2c(Cl)nc3ccccc3c2s1 | inactive: 4.05% |
| Cc1cccc(N(C)C(=O)c2cc(S(=O)(=O)N3CCCCC3)c[nH]2)c1 | inactive: -2.08% |
| CCc1nnc2c3ccccc3nc(Nc3ccc(F)c(Cl)c3)n12 | inactive: 48% |
| CCCC(CCC)C(=O)Nc1nnc2n1CCS2 | inactive: 31.9% |
